B1: CPEB3 Ribozyme (parent)
chain: UAACAGGGGGCCACAGCAGAAGCGUUCACGUCGCAGCCCCUGUCAGAUUCUGGUGAAUCUGCGAAUUCUGCUGUAUAUCUC

Read counts are not given, so values of variants with three or more changes are uncertain.

The variants in the data set derive from B1. Put plainly: self-cleavage, relative activity (ratio to wild type); higher = more cleavage; in vitro, sequencing. The essentials:
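Relative activity compares each variant's cleaved/total read fraction with that of the unmutated ribozyme. To get these fractions, barcoded CPEB3 ribozyme libraries from rounds of error-prone PCR were transcribed with T7 RNA polymerase for 5 hours at 37°C and then given 15 min of DNase I treatment before EDTA was added. The RNAs were reverse transcribed with template switching and sequenced on Illumina, and DNA sequencing linked barcodes to variants. A minimum of 5 reads applied, and three batches were averaged.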
A21G G42U U49C C59U: the self-cleavage was found to be 0.04.

On to A21G C29U U78C, for which the self-cleavage was 0.15.

For the variant A20U U41C G63A A64G A75G, the self-cleavage was 0.13.

For A20U U41C U48A U74C, the self-cleavage stood at 0.07.

Turning to A21G C23U C40G, the self-cleavage was 0.25.

Turning to A21G C27A A65G, the self-cleavage was 0.37.

On to A21G C40G A45G, for which the self-cleavage worked out at 0.11.

For A21G C27A U41A, the self-cleavage turned out to be 0.27.

For A21G A28G U41C U69C U80A, the self-cleavage was determined as 0.12.

With A20U U48C A57G U67C, the self-cleavage came out at 0.1.

Take A21G A56G A64U: the self-cleavage is 0.13.

Take A20U U60C C79G: the self-cleavage came out at 0.1.

A20U U41A U78A C81U: the self-cleavage turned out to be 0.26.

Turning to A21C C37U C59U A65G, the self-cleavage was determined as 0.12.

Regarding A21G C38A U48C G63A U72A, the self-cleavage amounted to 0.13.

Take A21G G24A U72A U78C C81U: the self-cleavage came out at 0.03.

Consider A21G A35C U67G U69A, for which the self-cleavage is 0.11.

On to A21G G24U A65C U67C, for which the self-cleavage came to 0.16.

In the case of A21C A28U G33U A47U, the self-cleavage came to 0.05.

In the case of A21C U41A U48C, the self-cleavage turned out to be 0.1.

With A21G A47G U67C, the self-cleavage was 0.1.

Turning to A21G A35G A77U, the self-cleavage stood at 1.26.

For A20U U43C A56U, the self-cleavage turned out to be 0.17.

Regarding A21G A28U U43C A56G G63A A65G, the self-cleavage was found to be 0.09.

With A21G A35G U49A U78C, the self-cleavage was 1.

On to A20U U26C U31C U51A U80A, for which the self-cleavage came to 0.27.

A21G A45G U51C G52A U54A: the self-cleavage was 0.33.

A20U U51C U54C A75U: the self-cleavage came to 0.3.

Turning to A21G C39G A45U, the self-cleavage stood at 0.31.

For the variant A21G A56G U80C, the self-cleavage turned out to be 0.47.

On to A20U U31G C32A U51A, for which the self-cleavage turned out to be 0.18.

Consider A20U U69C U72A, for which the self-cleavage worked out at 0.29.

A20U U43C U69A U72C: the self-cleavage is 0.16.

For the variant A20U U26C U48C U54C, the self-cleavage is 0.59.

For the variant A21C U26C A28U U54C A75G, the self-cleavage was determined as 0.04.

As for A21G A28G A64U, the self-cleavage was 0.36.

For the variant A21G C23U C39G, the self-cleavage worked out at 0.21.

As for A21C A35G A57G, the self-cleavage is 0.12.

As for A21G A57C G70A C71G U74C U80C, the self-cleavage was determined as 0.11.

Take A21G A28G A56U U72A: the self-cleavage amounted to 0.08.

Regarding A21G G24A U41A U51A, the self-cleavage stood at 0.08.

As for A21G C39U A77G, the self-cleavage was found to be 0.14.

For the variant A21G C39U U60G, the self-cleavage stood at 0.13.

A21G A45G A47U U51C U80A: the self-cleavage is 0.41.

Turning to A21G G24U U25C, the self-cleavage was 0.12.

For A20U U58A A77G, the self-cleavage is 0.11.

As to A21G A35G U41A G53U U69C, the self-cleavage came to 0.09.

Turning to A21G A45G U48C U80C, the self-cleavage came out at 0.03.

Regarding A21G A45U A56G, the self-cleavage was found to be 0.29.

For the variant A21G A47G G63A U69C, the self-cleavage amounted to 0.1.

Regarding A21G C37G U78C U80C, the self-cleavage was 0.14.

Consider A21G G24A U60A C62A U74A, for which the self-cleavage was found to be 0.2.

With A20U U26C C44U G52A A75U, the self-cleavage is 0.04.

In the case of A21G A57G U58C, the self-cleavage came out at 0.28.

Regarding A20U U49C A65G U69C, the self-cleavage was 0.11.

In the case of A21G A45G U67C, the self-cleavage stood at 0.11.

As to A20U U31C U43C A64G U72C, the self-cleavage was found to be 0.15.

In the case of A21G A57G A64G, the self-cleavage is 0.39.

For the variant A20U U67C A77G, the self-cleavage was 0.12.

For A20U U26G U51A U60C U69A G73A, the self-cleavage worked out at 0.13.

For the variant A21C A28C A35G, the self-cleavage was determined as 0.22.

Turning to A21G A28U U60A U69A, the self-cleavage was determined as 0.12.

A21G A28U U31A U48C: the self-cleavage was determined as 0.12.

As to A21G A35G A57U, the self-cleavage was determined as 0.76.

A21G A47G U48C U49A U60C: the self-cleavage was 0.34.

In the case of A21G A28G U69C, the self-cleavage was determined as 0.11.

In the case of A21G A47G G55U U80A, the self-cleavage worked out at 0.74.

Turning to A20U U41A U51C A65G, the self-cleavage came to 0.1.

Take A21G C27A A35U A45G A56G U72A: the self-cleavage came to 0.09.

With A21G A28G U51A U78A, the self-cleavage came to 0.29.

For the variant A21G A28U G33U U67A, the self-cleavage stood at 0.03.

With A21G C37U C44U C71U A77G, the self-cleavage turned out to be 0.06.

Regarding A21G A47G U58C U66C, the self-cleavage was found to be 1.12.

For A21G A28U U41A U49A, the self-cleavage was 0.24.

With A21G G33A A56G, the self-cleavage was found to be 0.14.

Take A20U U41G U54C: the self-cleavage was 0.12.

On to A21G G30A U60C U72G A77G, for which the self-cleavage worked out at 0.12.

As for A21G C29U G30A A56G U58C, the self-cleavage came out at 0.13.

As to A21G G24A A57U A65G G70A U76C, the self-cleavage worked out at 0.04.

For A20U U60A A64G, the self-cleavage is 0.13.

As to A21G C23U U67A U74A, the self-cleavage is 0.18.

Regarding A21G A28U U51A U69C, the self-cleavage was found to be 0.18.

For A21G A47G U48C U49A C59A A65G U80C, the self-cleavage was 0.08.

The values above are taken from the RNAGym collection of RNA variant scans (doi:10.1093/nar/gkz1192).
